Results on 61 compounds are retold here after PubChem BioAssay AID1963576 (National Center for Advancing Translational Sciences (NCATS), 2024).

Among all 46,000 compounds or so, about 60 (0.1%) were called active. Roughly 3% stayed inconclusive and do not appear here. The call rests on the fitted dose curve; in most records, active means well fitted inhibition curve with a large enough effect; inconclusive means small, poorly fitted or top-dose-only effect; inactive means no such curve, though single readings can be large or run the other way. The list shows a part of the results.

This test can be described thus: Primary qHTS assay for Inhibitors of ovarian cancer metastasis using an organotypic tumor microenvironment (TME) model. Further: nearly all actives have a fitted effect of over 65% in size.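 On activity change, negative = inhibition: plate controls were DMSO wells for no effect and tomatine positive control wells for full effect.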 Particulars: SKOV3ip1-GFP adhesion/invasion on 3D omental model, fluorescence; series mostly up to 45.8 µM; activity change, negative = inhibition: at the top concentration. The essentials: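 Adhesion/invasion was scored as fixed GFP-labeled SKOV3ip1 cell counts (488/509 nm), normalized to DMSO and tomatine controls. Cancer cells in serum-free medium, with four compound doses (0.36-46 umol/L), sat 2 hr at RT then 16 hr at 37 C on a 48 hr fibroblast/mesothelial/ECM culture.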
Turning to `Cc1ccc(NC(=O)Cn2c(=O)n(-c3ccc(CC(=O)NCC4CCCO4)cc3)c(=O)c3ccccc32)cc1` (stereo unspecified), the compound was called inactive. For `CCOc1ccc(-n2c(=O)c3c4c(sc3n(Cc3cccc(Cl)c3)c2=O)CCCC4)cc1`, the “activity change, negative = inhibition” value is inactive: 3.76%. Turning to `CC1=C(c2ccc(C)c(C)c2)S(=O)(=O)N=C1N1CCN(c2cccc(C(F)(F)F)c2)CC1`, the “activity change, negative = inhibition” value was inactive: -7.66%.

Regarding `CC(C)CN(c1ccccc1)S(=O)(=O)c1nnc(NC(=O)c2ccco2)s1`, the “activity change, negative = inhibition” value was inactive: 9.01%. On the same count and under the same terms, the result for `Cc1cccc(C(=O)Nc2ccccc2-c2nc(-c3ccccc3)no2)c1` reads inactive: -8.87%. On the same count and under the same terms, the result for `CC(=O)c1c(C)oc2ccc(N(C(=O)Oc3ccccc3)S(=O)(=O)c3ccc(Br)cc3)cc12` reads inactive: -17.4%. On to `COc1ccc(-c2nn(-c3ccccc3)cc2C(=O)Nc2ccccc2OC)cc1`, for which the compound was classed as inactive.

As for `CCn1cc(C(=O)N2CCN(c3ccccc3OC)CC2)c(=O)c2cc(S(=O)(=O)N3CCCCC3)ccc21`, the “activity change, negative = inhibition” value is inactive: -7.28%. `CCOc1ccc(Sc2cc(C(=O)NCCc3ccc(OC)c(OC)c3)c3ccccc3n2)cc1`: the “activity change, negative = inhibition” value was inactive: -7.73%. On to `O=C(O)c1cccc(NC(=O)c2cccc(S(=O)(=O)Nc3cccc(C(=O)O)c3)c2)c1`, for which the compound was classed as inactive. On the same count and under the same terms, the value for `CCn1c(=O)c2cc(C(=O)N(C)c3cc(C)ccc3C)sc2c2ccccc21` was “inactive”; that for `CCOc1ccccc1NC(=O)Cn1c(=O)n(Cc2ccc(C(=O)NCCCOC)cc2)c(=O)c2ccccc21` was “inactive”. With `COc1cc(OC)c(NC(=O)c2oc3ccc4c(c3c2C)C(=O)CC(C)(C)O4)cc1Cl`, the “activity change, negative = inhibition” value is inactive: -3.52%. With `COc1ccc(NC(=O)N2CCc3c(sc4c3CCCC4)C2c2ccc(F)cc2)cc1` (stereo unspecified), the “activity change, negative = inhibition” value is inactive: -1.01%. As to `O=C(CCSCc1ccccc1F)N1CCN(c2ccc(F)cc2)CC1`, the “activity change, negative = inhibition” value was inactive: -19.1%. On to `Cn1cc(C(=O)NCc2ccc(F)cc2)c(=O)c2cc(S(=O)(=O)N3CCCCC3)ccc21`, for which the “activity change, negative = inhibition” value is inactive: 0.0717%.

In the case of `CN(C)C(=O)c1ccc(S(=O)(=O)NCc2ccccc2Cl)s1`, the result was inactive. Regarding `COc1cc(OC)cc(-n2c(=O)[nH]c3cc(C(=O)NCCc4ccc(C)cc4)ccc3c2=O)c1`, the compound was called inactive. On to `COc1ccc(NC(=O)c2ccc3snnc3c2)cc1OC`, for which the “activity change, negative = inhibition” value is inactive: 51.3%. For `Cc1ccc(NC(=O)Nc2nnc(N3CCCCC3)s2)c(C)c1`, the “activity change, negative = inhibition” value is inactive: -5.66%. On the same count and under the same terms, the result for `CCc1ccc(CNC(=O)c2cc3c(=O)oc4ccc(C)cc4c3s2)cc1` reads inactive: -9.22%; that for `CCN(C(=O)c1sc2nc3n(c(=O)c2c1C)CCCCC3)c1ccccc1F`, inactive: -0.524%; that for `CCCCc1ccc(NC(=O)Cn2cnc3c2c(=O)n(C)c(=O)n3C)cc1`, inactive: -8.76%. `COc1ccc(-c2cc(C(F)(F)F)nc(SCC(=O)NCc3ccc(F)cc3)n2)cc1`: the call was inactive. Regarding `COc1cccc(NC(=O)Cn2c(=O)n(Cc3ccccc3)c(=O)c3c4c(sc32)CN(C(C)=O)CC4)c1`, the call was inactive. Turning to `COc1ccc(-n2cc3c(c2-c2cccc(Br)c2)c(=O)n(C)c(=O)n3C)cc1OC`, the “activity change, negative = inhibition” value is inactive: 9.42%. Still for that read-out and setting: the value for `COC(=O)c1ccccc1NC(=O)c1nc(SCc2ccccc2C)ncc1Cl` was inactive: 1.75%; that for `COc1ccccc1NC(=O)CN1C(=O)C(c2ccc(F)cc2)=NC1(C)C` was inactive: 10.6%. Still for that read-out and setting: the result for `Oc1ccccc1-c1nc(/C=C/c2ccc(F)cc2)no1` reads inactive: 7.31%. Turning to `Cc1c(Cl)cccc1N1CC(c2nc3ccccc3n2Cc2ccccc2F)CC1=O` (stereo unspecified), the call was inactive. `Cc1ccccc1NC(=O)Nc1nnc(N(C)Cc2ccccc2)s1`: the “activity change, negative = inhibition” value is inactive: -4.64%. For the compound `Cc1cccc(N2CCN(C(=O)Nc3ccc(F)cc3)CC2C)c1` (stereo unspecified), the “activity change, negative = inhibition” value was inactive: 10.2%. On the same count and under the same terms, the result for `CCCCCSc1nnc2c(n1)OC(c1ccc(C)s1)N(C(C)=O)c1ccccc1-2` (stereo unspecified) reads inactive: -5.87%.

As to `COc1ccc(S(=O)(=O)NC2(C(F)(F)F)NC(=O)N(CCc3ccccc3)C2=O)cc1` (stereo unspecified), the call was inactive. Consider `Cc1ccc(Cn2cc(CCC(=O)NC3CCCCC3)c3ccccc32)cc1`, for which the “activity change, negative = inhibition” value is inactive: -8.5%. The same measure, in the same setting: the value for `Cc1cc(=O)[nH]c2nnc(SCc3cccc(F)c3)n12` was inactive: 0.415%; that for `O=c1c2oc3ccccc3c2n(Cc2ccccc2F)c(=O)n1Cc1ccco1` was inactive: 2.22%.

Turning to `Cc1c(CNCCCc2ccccc2)c(C(=O)O)c(C)n1Cc1ccc(Cl)cc1`, the “activity change, negative = inhibition” value is inactive: 1.63%.

In the case of `Cc1ccc(N2CCN(C(=O)c3nn(C)c4c3CS(=O)(=O)c3ccccc3-4)CC2C)cc1` (stereo unspecified), the “activity change, negative = inhibition” value was inactive: 2.08%. `CCOc1ccc(-c2ccc(NS(=O)(=O)c3cc(C)ccc3OC)cc2)nn1`: the “activity change, negative = inhibition” value is inactive: 1.61%.

Turning to `CCS(=O)(=O)c1c(Nc2ccc(F)c(Cl)c2)sc(C(=O)c2ccccc2)c1N`, the “activity change, negative = inhibition” value was inactive: -9.1%. Turning to `Cc1cccc(NC(=O)Cn2c(=O)n(Cc3ccc4c(c3)OCO4)c(=O)c3ccccc32)c1`, the outcome was inactive. `Cc1[nH]c2ccccc2c1CCNCc1ccc(C=CC(=O)NO)cc1`: the “activity change, negative = inhibition” value is inactive: 17.4%. In the case of `CC1CCN(S(=O)(=O)c2ccc3c(c2)N(CC(=O)Nc2ccc(F)c(Cl)c2)C(=O)CO3)CC1`, the “activity change, negative = inhibition” value was inactive: -4.46%. Same read-out and setting: the value for `COc1ccc(-c2nc3ccc(C(=O)NCc4ccc(C)cc4)cc3nc2-c2ccc(OC)cc2)cc1` was inactive: 11.3%; that for `Cc1cc(=O)[nH]c(SCC(=O)N2CCN(c3ccccc3)CC2)n1` was inactive: 12.2%. The same measure, in the same setting: the value for `COc1ccc(Cl)cc1-n1c(CCC(=O)O)ccc1-c1ccc(C)cc1` was inactive: -12%.

Consider `O=C(CC1N=C2c3ccccc3N=C(SCc3ccccc3Cl)N2C1=O)NC1CCCCC1` (stereo unspecified), for which the “activity change, negative = inhibition” value is inactive: 7.58%. On the same count and under the same terms, the result for `Cc1ccc(OCCn2c(COc3ccc(Cl)cc3)nc3ccccc32)cc1` reads inactive: 0.713%. On to `Cc1nn(CC(=O)N2CCN(c3ccccc3)CC2)c(=O)c2cc3sccc3n12`, for which the call was inactive.

For the compound `CCC(=O)N1CCc2cc(CNS(=O)(=O)c3cc(Cl)ccc3OC)ccc21`, the call was inactive. On the same count and under the same terms, the result for `COc1ccc(Br)cc1CNC(=O)CCSCc1ccc(Cl)cc1` reads “inactive”. Regarding `CCOC(=O)c1sc(NC(=O)c2nc3nc(C)cc(C(F)F)n3n2)c(C(=O)OC)c1C`, the “activity change, negative = inhibition” value was inactive: 8.13%.

Consider `CC1CCN(C(=O)c2ccc(NC(=O)c3nsc4ccccc34)cc2)CC1`, for which the “activity change, negative = inhibition” value was inactive: -9.09%. Consider `CCc1ccccc1NC(=O)Cn1c(=O)ccc2cc(S(=O)(=O)N3CCC(C)CC3)ccc21`, for which the “activity change, negative = inhibition” value was inactive: -0.358%.

On to `Cc1ccc(CCNC(=O)CN2N=C(c3ccc(C)cc3)CCC2=O)cc1`, for which the compound was called inactive.

In the case of `Cc1cccc(N2CCN(S(=O)(=O)c3c(C)nc4scc(C)n4c3=O)CC2C)c1` (stereo unspecified), the “activity change, negative = inhibition” value is inactive: -18.6%. As to `COc1ccc(N2C(=O)CCSC23C(=O)N(Cc2ccc(F)cc2)c2ccccc23)cc1Cl` (stereo unspecified), the “activity change, negative = inhibition” value was inactive: 2.86%. Still for that read-out and setting: the value for `COc1cccc(NC(=O)N2CCC(CN3CCOCC3)CC2)c1` was inactive: 4.69%. Regarding `Cc1c(C(=O)Nc2cccc(Cl)c2)oc2ccc(S(=O)(=O)N3CCOCC3)cc12`, the outcome was inactive. `CCC(C)NC(=O)Cn1cnc2sc(C)c(S(=O)(=O)N3CCN(c4ccccc4OC)CC3)c2c1=O` (stereo unspecified): the “activity change, negative = inhibition” value is inactive: -9.76%.
